Among all 7,900 compounds or so, about 400 (5.1%) showed an effect of 50% or more. Some of the results follow.
These compounds were tested against Parkinson's disease protein 7 (PARK7/DJ1) (human, UniProt Q99497) (assay: primary screen, percent inhibition; read as competition with a fluorescent probe by fluorescence polarization; higher = more effect of the substance). Conditions: 100 µM.
Parkinson's disease protein 7 (PARK7/DJ1), sequence (Q99497 whole entry, looked up, the tested form may be a part): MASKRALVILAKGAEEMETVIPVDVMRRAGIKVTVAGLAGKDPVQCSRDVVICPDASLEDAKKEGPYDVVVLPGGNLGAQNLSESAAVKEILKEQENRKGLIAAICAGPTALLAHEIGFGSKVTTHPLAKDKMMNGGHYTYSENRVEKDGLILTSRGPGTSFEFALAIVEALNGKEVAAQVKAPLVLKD
Summary of the method: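 Fluorescence-polarization probe displacement (JYQ-107, 20 nM final, 2 h) after 2 h preincubation of PARK7 (0.2 μM final) with each fragment at 100 μM final. Read-out ex/em 480/520 nm; remaining activity derived from FP signal loss relative to reference controls.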
`O=C(CCl)N(C1CCCCC1)C1CCS(=O)(=O)C1` (stereo not drawn) gave an Inhibition % of 1.27%. In the case of `C=CC(=O)NC1CCOC1(C)C` (stereo not drawn), the Inhibition % is reported as -0.151%. `Cc1cccc(C2=NC(=Cc3cnn(C)c3)C(=O)O2)c1` was tested, and the Inhibition % was 2.85%. `COc1ccc(C(=O)CCl)cc1Cl` showed an Inhibition % of 95.9%. `Nc1cccc(OC2CC(=O)N2)c1` (stereo not drawn) was tested, and the Inhibition % was 18.6%. Work on `C=CC(=O)N1CC2(CCC2)C2COCC21` (stereo not drawn) yielded an Inhibition % of 14.3%. `Cc1nsc(N2CCC(C3NC(=O)C3(C)C)CC2)n1` (stereo not drawn) gave an Inhibition % of -0.128%. With `C=CC(=O)NC1CC(OCC)C12CCCCC2` (stereo not drawn) the Inhibition % was 4.59%. In the case of `CC1(C)OB(c2ccc(F)c(OC(F)F)c2)OC1(C)C`, the Inhibition % is reported as 7.71%. `Cc1n[nH]c(C)c1CNC(=O)c1cccnc1S` showed an Inhibition % of 7.62%. For `C=CC(=O)N1CC(C2CCOC2)C1` (stereo not drawn), the Inhibition % was 8.11%. Work on `O=C(CCl)N1c2ccccc2NC(=O)C12CCCC2` yielded an Inhibition % of 42.3%. `N#Cc1ccn2ncc(C(=O)O)c2c1` was tested, and the Inhibition % was 13.4%. For `O=S(=O)(F)CCS(=O)(=O)c1ccc(Cl)cc1`, the Inhibition % was 4.77%. Compound `Cc1nc(CCN2C(=O)SC(C)(C)C2=O)cs1` has an Inhibition % of 17.3%. In the case of `CN(C)Cc1nc(S)c2ccccc2n1`, the Inhibition % is reported as 0.786%. `N#Cc1ncccc1N1CCCC1CF` (stereo not drawn) showed an Inhibition % of -3.5%. `C=CC(=O)NCC(=O)NCC1(C#N)CC1` showed an Inhibition % of 4%. For `COc1ccc(CN(C(=O)CCl)C2CC2)cc1`, the Inhibition % was 15.6%. `Cc1ccc(NC(=O)NC(=O)CCl)c(C)c1` gave an Inhibition % of 2.37%. Compound `C=CC(=O)N1CCCC1C(=O)Nc1nc2ccccc2s1` (stereo not drawn) has an Inhibition % of 43.9%. With `O=C(CN1CCSC1=O)N1CCCCC1` the Inhibition % was 7.42%. `COc1ccc(Cl)cc1S(=O)(=O)n1cnc(C)c1` was tested, and the Inhibition % was 5.84%. `O=C1CCN1c1ccccc1` gave an Inhibition % of 5.28%. `COC(=O)c1cc([N+](=O)[O-])cc(B2OC(C)(C)C(C)(C)O2)c1C` showed an Inhibition % of 12.9%. `C=CC(=O)N1CCOC[C@@H]1CC(C)C` was tested, and the Inhibition % was 6.89%. With `O=C(CCl)Nc1ccc(Cl)cc1C(F)(F)F` the Inhibition % was 2.37%. `CC1CN(C(=O)C=Cc2ccnn2C)CCN1` (stereo not drawn) gave an Inhibition % of 13.1%. `Cc1cc(I)ccc1NC(=O)CCl` was tested, and the Inhibition % was 7.36%. In the case of `O=C(O)CC1C=CS(=O)(=O)C1` (stereo not drawn), the Inhibition % is reported as 7.6%. In the case of `N#Cc1ncn(CC(=O)NCCc2cccc(Cl)c2)n1`, the Inhibition % is reported as 7.82%. Compound `C=CC(=O)N1CCc2ccc(C(=O)O)cc2CC1` has an Inhibition % of 4.84%. In the case of `CNCc1ccccc1B1OC(C)(C)C(C)(C)O1`, the Inhibition % is reported as 2.09%. For `O=C1c2ccccc2C(=O)N1CCOCCS`, the Inhibition % was 4.53%. In the case of `CCOc1cc(C)c(C)cc1S(=O)(=O)n1ccnc1`, the Inhibition % is reported as -3.83%. With `Cn1ccc(NS(=O)(=O)c2cccc(S(=O)(=O)F)c2)n1` the Inhibition % was 97.7%. `C=CC(=O)Nc1ccc(Br)cc1` gave an Inhibition % of 6.59%. `CN(c1nccs1)S(=O)(=O)C=Cc1ccccc1` was tested, and the Inhibition % was 7.29%. `CC1(C)OB(c2ccc3cc(N)ccc3c2)OC1(C)C` gave an Inhibition % of 87.8%. `C=CCN1C(=O)CSC1=CC#N` showed an Inhibition % of 9.19%. Compound `O=C(CCl)NNC(=O)[C@@H]1C[C@H]1c1ccc(Cl)cc1` (racemic) has an Inhibition % of 4.78%. Work on `N#CC(=Cc1ccc(OCC(F)F)cc1)C(N)=O` yielded an Inhibition % of 15.7%. Work on `CC1(C)OB(c2ccccc2O)OC1(C)C` yielded an Inhibition % of 3.67%. For `N#Cc1cnc2c(F)cccn12`, the Inhibition % was 11.6%. Work on `C=C(Cl)CSc1nc2ccsc2c(=O)n1C` yielded an Inhibition % of 13.1%. Compound `C=CC(=O)N1CCN(C2CCNC(=O)CC2)CC1` (stereo not drawn) has an Inhibition % of 25.1%. Compound `O=S(=O)(F)c1ccc(S(=O)(=O)Nc2ncccc2Cl)cc1` has an Inhibition % of 32.9%. Work on `C=CC(=O)NCc1ccccc1` yielded an Inhibition % of 1.76%. For `O=C(CN1CCSC1=O)Nc1nccs1`, the Inhibition % was 10.1%. Work on `O=C1CCC(=O)N1CCC(=O)N1CCC1c1ccccc1` (stereo not drawn) yielded an Inhibition % of 7.6%. For `C=CC(=O)N(C)Cc1ncc(C2CC2)o1`, the Inhibition % was 10.7%. Compound `C=CC(=O)N1CCC(C)(C(C)C)CC1` has an Inhibition % of 12.6%. `CCOc1cc(C)c(C(C)C)cc1S(=O)(=O)n1ccnc1` showed an Inhibition % of 6.3%. Compound `Cc1nn(-c2ccccc2)c(C)c1CNC(=O)CCl` has an Inhibition % of 13.2%. `N#CC=Cc1ccc(F)c(F)c1` showed an Inhibition % of -4.2%. In the case of `O=S(=O)(F)c1c[nH]c2ncc(Br)cc12`, the Inhibition % is reported as 7.67%. `OB(O)c1ccc(OCc2ccccc2)cc1F` gave an Inhibition % of 10.7%. `O=C(CCl)Nc1cccc(Cl)c1N1CCOCC1` showed an Inhibition % of 8.83%. `N#Cc1cc(C(=O)Nc2ccccc2)c(N)nc1S` gave an Inhibition % of 1.51%. Work on `Cc1nn(S(=O)(=O)N2CCCC2)c(C)c1C` yielded an Inhibition % of 7.29%. Work on `C=CC(=O)N1CC(=O)Nc2c(F)cccc21` yielded an Inhibition % of -0.81%. `O=C(c1cccs1)N1CCCC(S(=O)(=O)F)C1` (stereo not drawn) gave an Inhibition % of 73.5%. In the case of `CC1CC(N(C)Cc2nc3ccccc3s2)C(=O)O1` (stereo not drawn), the Inhibition % is reported as 6.15%. Compound `N#Cc1ccc(N2CCC=C(F)C2)cn1` has an Inhibition % of 5.08%. Compound `Cc1cnc(C#N)c(Cl)n1` has an Inhibition % of 7.46%. Work on `CC(NC(=O)CCl)c1cccc(Cl)c1` (stereo not drawn) yielded an Inhibition % of 7.45%. `CC(C)c1ccc(NC(=O)CCl)cc1` showed an Inhibition % of 95.8%. Compound `N#Cc1nc(-c2ccc(Cl)cc2)oc1NCC1CCCO1` (stereo not drawn) has an Inhibition % of 6.43%. `CN(C)C(=O)Sc1cnc2c(c1)c(=O)n(C)c(=O)n2C` gave an Inhibition % of 14.1%. Work on `CCn1c(C)cc(C(=O)Cn2cnc(C#N)n2)c1C` yielded an Inhibition % of 0.239%. `C=CC(=O)NC1CCCc2c1ccc(=O)n2C` (stereo not drawn) showed an Inhibition % of 9.61%. With `CN1C(=O)C(=C(C#N)C(=O)N2CCCC2)c2ccccc21` the Inhibition % was 5.86%. Compound `CCCOc1ccc(S(=O)(=O)n2nc(C)cc2C)cc1C` has an Inhibition % of 19.8%. Compound `CCN(Cc1cccc(C)c1)C(=O)CCl` has an Inhibition % of 21.1%. `C=CC(=O)NCC1(c2cccc(Cl)c2)CCOCC1` gave an Inhibition % of 2.89%. `N#Cc1ncccc1N1CCN(c2ccc(F)cc2)CC1` gave an Inhibition % of 3%. Compound `Cl.O=C(CN1CCN(C(=O)CCl)CC1)Nc1cccc(F)c1` has an Inhibition % of 8.6%. Compound `CN(C)C(=O)Sc1ccccc1N.Cl` has an Inhibition % of 3.58%. For `C=CC(=O)N1CCCC1c1ccc2c(c1)OCO2` (stereo not drawn), the Inhibition % was 6.06%. For `FC(F)Oc1ccc(C2CO2)cc1` (stereo not drawn), the Inhibition % was 8%. `CSc1ccccc1NC(=O)CCl` was tested, and the Inhibition % was 4.72%. For `CC1CCCC(NC(=O)CCN2C(=O)CCC2=O)C1` (stereo not drawn), the Inhibition % was 12.4%. With `Cc1cc(NC(=O)CN2CCSC2=O)no1` the Inhibition % was 2.84%. For `C=CC(=O)N1CCC1c1ccccc1` (stereo not drawn), the Inhibition % was 10.5%. `C=CC(=O)N1CCc2cc(C)ccc21` showed an Inhibition % of 2.47%. Work on `c1csc(C2OCCO2)n1` yielded an Inhibition % of 1.86%. `CCOc1cccc(CNC(=O)CCl)c1` gave an Inhibition % of 0.636%. `Cl.Cl.NC1CCN(C(=O)C=Cc2ccnc3ccccc23)C1` (stereo not drawn) was tested, and the Inhibition % was 14.5%. `O=S(=O)(C=Cc1ccc(Cl)cc1)NCc1ccco1` gave an Inhibition % of 8.72%. Compound `O=C(O)c1ccc(NS(=O)(=O)C=Cc2ccccc2)cc1` has an Inhibition % of 6.88%. Compound `C=CC(=O)N[C@H]1[C@@H]2COC[C@@H]21` has an Inhibition % of 9.24%. With `C=CC(=O)N(C)Cc1n[nH]c(=O)o1` the Inhibition % was 12.6%. `C=CC(=O)N1CCC2OCCCC2C1` (stereo not drawn) was tested, and the Inhibition % was 7.7%. For `C=CC(=O)NCc1cccc(N2CCCS2(=O)=O)c1`, the Inhibition % was 6.66%. For `C=CC(=O)N1CCC(C(N)=O)c2ccccc21` (stereo not drawn), the Inhibition % was 9.56%. Compound `O=C(CCl)N1CCN(S(=O)(=O)c2ccccc2)CC1` has an Inhibition % of 8.48%. With `Cc1ccc(N2C(=O)CN=C2S)cc1Cl` the Inhibition % was 7.52%. `CSCC(C)NC(=O)c1ccc(C#N)[nH]1` (stereo not drawn) gave an Inhibition % of 7.59%. With `CCCn1c(C)cc(C(=O)CCl)c1C` the Inhibition % was 56%. `C=CC(=O)NCC1CC12CC2` (stereo not drawn) showed an Inhibition % of 12.5%. Compound `C=CC(=O)NC1CCN(c2ccn(C)n2)C1=O` (stereo not drawn) has an Inhibition % of -2.57%. In the case of `N#Cc1ccc(N2CC(O)CC2c2cccc(F)c2)cn1` (stereo not drawn), the Inhibition % is reported as 3.63%. With `Cc1ccsc1C=C(C#N)C(=O)NCCN1CCCCC1` the Inhibition % was 8.55%. Work on `C=CC(=O)NCCc1cnc(C)cn1` yielded an Inhibition % of 5.67%. With `N#CN(CC1CCOC1)c1ccccc1F` (stereo not drawn) the Inhibition % was 6.11%. For `C=CC(=O)NC1(C(N)=O)CCOc2ccccc21` (stereo not drawn), the Inhibition % was 6.88%. For `N#CC(=Cc1ccc2c(c1)OCCO2)C(N)=S`, the Inhibition % was 14.6%. With `COC1CC(Nc2cccnc2C#N)C1(C)C` (stereo not drawn) the Inhibition % was 6.92%. For `CC(NC(=O)Oc1ccccc1)C(=O)O` (stereo not drawn), the Inhibition % was 10.1%. For `C=CC(=O)NCC1(C)CCOCC1`, the Inhibition % was 4.38%. In the case of `O=C(CCl)NCCc1cnn(-c2ccccc2)c1`, the Inhibition % is reported as 18.9%. Work on `C=CC(=O)Nc1ccc2c(c1)N(CC#N)CC2` yielded an Inhibition % of 10.2%. With `Cc1nonc1C(=O)CCl` the Inhibition % was 97.9%. Work on `Cc1nc(C=C(C#N)C(=O)NC(C)C)[nH]c1C` yielded an Inhibition % of 9.05%. In the case of `C=CC(=O)N1CCC(CNC(C)=O)CC1`, the Inhibition % is reported as 25%. `C=CC(=O)NC1COc2cccc(C)c2C1` (stereo not drawn) was tested, and the Inhibition % was 1.76%. `C=CC(=O)N1CCCC1c1ccc(N(C)C)nn1` (stereo not drawn) showed an Inhibition % of 14.7%. `CCN(Cc1ccccn1)C(=O)c1cccnc1S` showed an Inhibition % of 10.5%. In the case of `CC1CC1C(=O)N1CCC(S(=O)(=O)F)CC1` (stereo not drawn), the Inhibition % is reported as 72.2%. For `NS(=O)(=O)c1ccc(CCN2C(=O)CCC2=O)cc1`, the Inhibition % was 14.1%. For `CSc1ccccc1OCC1CO1` (stereo not drawn), the Inhibition % was 7.25%. `O=c1[nH]nc(-c2ccc(F)cc2)o1` gave an Inhibition % of 6.22%. `C=CC(=O)NCc1ccc2[nH]cnc2c1` showed an Inhibition % of 26.1%. For `COc1ccnc(C#N)c1`, the Inhibition % was 5.08%. `O=C(O)c1ccoc1CS` showed an Inhibition % of 64.1%. With `C=CC(=O)N1CCC2(CC(OCC)C2)C1` (stereo not drawn) the Inhibition % was 4.92%.

Source: paper PMC9574860, “Chemical Toolkit for PARK7: Potent, Selective, and High-Throughput” (Journal of Medicinal Chemistry, 2022)
